{"source": "paper PMC6919601", "about": "“Identification of Plasmodium dipeptidyl aminopeptidase allosteric inhibitors by high throughput screening” (PLoS ONE, 2019)", "note": "In all, about 110,000 compounds went through this assay and about 230 (0.21%) showed an effect of 50% or more. The list shows a part of the results.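 Also: 30 min substrate incubation versus DMSO and 10 µM JCP410 controls.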", "data": [{"biological_target": "DPAP1 (Plasmodium falciparum, UniProt Q8IIJ9)", "sequence (Q8IIJ9 whole entry, looked up)": "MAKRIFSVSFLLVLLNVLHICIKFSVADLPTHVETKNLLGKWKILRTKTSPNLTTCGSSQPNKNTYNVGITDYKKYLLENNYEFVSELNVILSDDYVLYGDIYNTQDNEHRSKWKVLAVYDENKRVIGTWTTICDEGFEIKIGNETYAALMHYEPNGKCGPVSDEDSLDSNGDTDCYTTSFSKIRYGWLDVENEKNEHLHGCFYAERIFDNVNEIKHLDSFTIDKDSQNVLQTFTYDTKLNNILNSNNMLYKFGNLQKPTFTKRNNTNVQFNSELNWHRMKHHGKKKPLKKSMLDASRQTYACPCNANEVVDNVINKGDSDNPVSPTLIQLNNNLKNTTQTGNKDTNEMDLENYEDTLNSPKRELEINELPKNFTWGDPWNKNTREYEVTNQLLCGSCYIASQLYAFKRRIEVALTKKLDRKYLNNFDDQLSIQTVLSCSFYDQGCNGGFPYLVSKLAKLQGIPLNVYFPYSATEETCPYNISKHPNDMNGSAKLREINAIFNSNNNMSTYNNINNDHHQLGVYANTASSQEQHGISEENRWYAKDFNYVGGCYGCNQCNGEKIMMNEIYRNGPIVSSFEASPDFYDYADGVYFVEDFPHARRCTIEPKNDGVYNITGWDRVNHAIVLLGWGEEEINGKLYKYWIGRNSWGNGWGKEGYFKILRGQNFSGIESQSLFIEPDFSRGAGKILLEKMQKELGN", "assay": "primary screen, percent inhibition; read by cleavage of a fluorogenic dipeptide substrate; higher = more effect of the substance", "design": "species or system P. falciparum D10 trophozoite lysates; single well", "units": {"% Inhibition @ 10 uM": "%"}, "values": [{"smiles": "CSc1ccc(CCNC(=O)CCCn2c(=O)c3cccn3c3cccnc32)cc1", "% Inhibition @ 10 uM": -2.73}, {"smiles": "CC1=NOC(=O)/C1=C\\c1ccc(OCC(=O)O)c(Br)c1", "% Inhibition @ 10 uM": -3.63}, {"smiles": "CSc1ccc(CN2CCN(Cc3cccnc3)CC2)cc1", "% Inhibition @ 10 uM": -6.34}, {"smiles": "CC1=C(C(=O)Nc2cccc(F)c2)C(c2ccc(N(C)C)cc2)C2=C(O)CC(C)(C)CC2=N1", "note": "(stereo not drawn)", "% Inhibition @ 10 uM": -4.49}, {"smiles": "Cn1c(C(=O)NCc2cccnc2)cc2sccc21", "% Inhibition @ 10 uM": -6.68}, {"smiles": "CCOc1ccccc1N1CCN(C(=O)c2cc(OC)cc(OC)c2)CC1", "% Inhibition @ 10 uM": -6.01}, {"smiles": "CN(C)c1ccnc(SCc2ccccc2Cl)c1C#N", "% Inhibition @ 10 uM": 0.634}, {"smiles": "C=CCn1c(SCC(=O)N2CCc3ccccc3C2)nc2sc(C)cc2c1=O", "% Inhibition @ 10 uM": -0.994}, {"smiles": "CCOC(=O)N1CCC(NCC2CCCCC2)CC1", "% Inhibition @ 10 uM": -5.11}, {"smiles": "Cn1cc(CNC(=O)c2cc(-c3ccccc3)nc3ccccc23)cn1", "% Inhibition @ 10 uM": 6.18}, {"smiles": "COc1ccc(OCC(=O)N2CCN(C(=O)COc3ccc(OC)cc3)CC2)cc1", "% Inhibition @ 10 uM": 6.69}, {"smiles": "CCc1ccc(S(=O)(=O)N2CCSC2c2cc(OC)ccc2OC)cc1", "note": "(stereo not drawn)", "% Inhibition @ 10 uM": -1.6}, {"smiles": "CCOC(=O)N1CCc2c(sc3c2C(=O)NC(c2ccc(-c4ccc(Cl)cc4)o2)N3)C1", "note": "(stereo not drawn)", "% Inhibition @ 10 uM": 4.08}, {"smiles": "COc1cccc(NC(=O)COc2ccc(Cl)cc2Cl)c1", "% Inhibition @ 10 uM": -3.24}, {"smiles": "COc1ccc(-c2c(C)nn3c(O)cc(-c4ccccc4)nc23)cc1", "% Inhibition @ 10 uM": 4.52}, {"smiles": "CCO/C(O)=C(/C(=N)C(F)(F)F)C(C)=O", "% Inhibition @ 10 uM": -1.82}, {"smiles": "CCC1CCCCN1CCCNC(=O)Cn1ncn2nc(-c3cccs3)cc2c1=O", "note": "(stereo not drawn)", "% Inhibition @ 10 uM": -1.08}, {"smiles": "Cc1sc(NC(=O)C2CC3CCC2C3)nc1-c1ccccc1", "note": "(stereo not drawn)", "% Inhibition @ 10 uM": 2.42}, {"smiles": "Cc1ccc(C(=O)n2cnnc2N)cc1Cl", "% Inhibition @ 10 uM": 0.275}, {"smiles": "Cc1cc(C)c(Cn2c3ccccc3c3cnn(CC(=O)NCc4cccnc4)c(=O)c32)c(C)c1", "% Inhibition @ 10 uM": -3.58}, {"smiles": "CNC(=O)C(=O)Nc1cccc(Cl)c1", "% Inhibition @ 10 uM": -4.01}, {"smiles": "COc1ccc(CCCC(=O)Nc2cccc(SC)c2)cc1", "% Inhibition @ 10 uM": -4.76}, {"smiles": "CCOc1ccc(C2C3=C(O)CC(C)(C)CC3=NC3=C2C(=O)CC(C)(C)C3)cc1Cl", "note": "(stereo not drawn)", "% Inhibition @ 10 uM": -1.6}, {"smiles": "CC12OC(=O)C(Cl)(Cl)C1c1ccccc1C2=O", "note": "(stereo not drawn)", "% Inhibition @ 10 uM": 0.413}, {"smiles": "O=C(O)c1ccc(CNC(=O)c2ccc3c(c2)C(=O)N(Cc2ccco2)C3=O)cc1", "% Inhibition @ 10 uM": 2.13}, {"smiles": "COC(=O)C1=C(C)NC(=O)CC1c1cc(Br)ccc1OC", "note": "(stereo not drawn)", "% Inhibition @ 10 uM": 1.84}, {"smiles": "CCN(CC)CCCCCOc1cc(C)c(Cl)c(C)c1", "% Inhibition @ 10 uM": 0.132}, {"smiles": "Cc1c(C(=O)NCc2ccc3c(c2)OCO3)oc2c1-c1n[nH]cc1CC2", "% Inhibition @ 10 uM": 3.87}, {"smiles": "CN1CCN(c2ncnc3c2cnn3C)CC1", "% Inhibition @ 10 uM": 5.84}, {"smiles": "CC1(C)CC(=O)C2=C(C1)c1c(ccc3ccccc13)NC2c1ccccc1OCC(N)=O", "note": "(stereo not drawn)", "% Inhibition @ 10 uM": -4.03}, {"smiles": "CCN(Cc1ccncc1)C(=O)c1cccs1", "% Inhibition @ 10 uM": -4.3}, {"smiles": "Cc1cc(C)n(-c2cc(-c3ccccc3)nc(-c3ccc(Br)cc3)n2)n1", "% Inhibition @ 10 uM": 5.03}, {"smiles": "COc1ccc(-c2nc3cc(C)ccn3c2NC(=O)c2ccc(OC)cc2OC)cc1", "% Inhibition @ 10 uM": 2.17}, {"smiles": "Cc1ccc(NC(=O)c2cc3ccccc3oc2=O)c(Br)c1", "% Inhibition @ 10 uM": 3.03}, {"smiles": "CCCc1c(C)nc2ccc(OC)cc2c1S", "% Inhibition @ 10 uM": 0.132}, {"smiles": "COC(=O)c1ccccc1NC(=O)CCN1C(=O)c2ccccc2C1=O", "% Inhibition @ 10 uM": -5.51}, {"smiles": "CCN1CCC(N2CCCC(CO)C2)CC1", "note": "(stereo not drawn)", "% Inhibition @ 10 uM": 1.83}, {"smiles": "CO/C(O)=C1\\C(C)=NC2=C(C(=O)CC(C)(C)C2)C1c1ccc(O)c([N+](=O)[O-])c1", "note": "(stereo not drawn)", "% Inhibition @ 10 uM": 1.38}, {"smiles": "COc1ccc(CNC2CCC(c3ccccc3)CC2)cc1OC", "note": "(stereo not drawn)", "% Inhibition @ 10 uM": 2.99}, {"smiles": "c1cncc(-c2nc3ccccc3s2)c1", "% Inhibition @ 10 uM": -0.294}, {"smiles": "Clc1cc2c(c3ncccc13)OCN(CCC1=CCCCC1)C2", "% Inhibition @ 10 uM": -3.21}, {"smiles": "COc1cc2c(N3CCOCC3)cc(O)c(CC(=O)Nc3ccccc3)c2cc1OC", "% Inhibition @ 10 uM": -0.0372}, {"smiles": "CC(C)Oc1ccc(C(=O)Nc2ccc(Br)cc2)cc1", "% Inhibition @ 10 uM": -6.05}, {"smiles": "COc1ccc(OC)c(C2C(=O)N(C3CCC(C)CC3)CC(=O)N2CCc2ccccc2Cl)c1", "note": "(stereo not drawn)", "% Inhibition @ 10 uM": -4.06}, {"smiles": "c1ccc2c(c1)nc(NCc1ccc3c(c1)OCO3)c1nnnn12", "% Inhibition @ 10 uM": -6.58}, {"smiles": "O=C(O)C1Cc2c([nH]c3ccccc23)C(c2ccccc2F)N1", "note": "(stereo not drawn)", "% Inhibition @ 10 uM": -0.999}, {"smiles": "Cc1ccc(C)c(Cn2c(C)c(CNCCCN3CCCC3=O)c(C(=O)O)c2C)c1", "% Inhibition @ 10 uM": -5.49}, {"smiles": "O=C(CCc1nnc2n(Cc3ccccc3)c(=O)c3ccccc3n12)NCc1ccccc1Cl", "% Inhibition @ 10 uM": -4.21}, {"smiles": "Cc1ccc(C)n1-c1nnc(N2CCC(C(=O)NCCc3cccs3)CC2)s1", "% Inhibition @ 10 uM": 1.15}, {"smiles": "Cc1nc2c(C(=O)NC3CCCC(C)C3C)cnn2c(C)c1Cc1ccccc1Cl", "note": "(stereo not drawn)", "% Inhibition @ 10 uM": 1.27}, {"smiles": "Cc1nc2ncnn2c(C)c1CCC(=O)NCCc1ccccc1", "% Inhibition @ 10 uM": -8.02}]}]}
